From the BET-seq Pho4 binding data (Le et al. 2018)
The other results are listed elsewhere or left out. The energies were worked out here from pooled read counts, against the library average; single values are noisy.

Molecular target: T1, Pho4 (S. cerevisiae) (UniProt P07270)
T1 sequence: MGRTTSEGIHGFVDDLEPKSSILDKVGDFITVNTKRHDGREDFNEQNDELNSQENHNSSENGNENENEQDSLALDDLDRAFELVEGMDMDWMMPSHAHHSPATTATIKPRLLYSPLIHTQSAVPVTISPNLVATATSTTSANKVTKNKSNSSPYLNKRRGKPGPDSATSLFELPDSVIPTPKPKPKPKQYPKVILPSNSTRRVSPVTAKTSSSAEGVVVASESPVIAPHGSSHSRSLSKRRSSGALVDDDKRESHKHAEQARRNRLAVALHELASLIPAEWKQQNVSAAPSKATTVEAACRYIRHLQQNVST
Experiment: relative binding free energy (BET-seq); higher = weaker binding
Conditions: reference: library average

Sequence | relative binding free energy [kcal/mol]
AGTTCCACGTGGTGGA | -0.01
TGGTACACGTGCGTTA | -0.1
TCATTCACGTGATATT | 0.32
TTTTGCACGTGCGGTC | 0.09
GTTGTCACGTGTGTTC | 0.21
TGTTTCACGTGCCGTA | 0.22
TGTGTCACGTGTGTCG | 0.21
ATTAGCACGTGTCTGT | -0.07
ATGATCACGTGGAAGT | 0.13
GTCGACACGTGGGTGG | -0.09
GGGCGCACGTGTGCGA | -0.07
AAATCCACGTGGTGGT | 0
GGTTGCACGTGCTGGT | -0.01
GAGACCACGTGGGGGA | -0.12
CTTGTCACGTGTCTTA | 0.13
GTGTGCACGTGGACGC | 0
GTTGGCACGTGATGGC | 0.09
TTTTTCACGTGGACTG | 0.23
GTGTCCACGTGGGATA | -0.04
AAGTACACGTGGGTAA | -0.03
CGGTACACGTGATTTG | 0.2
GAGGACACGTGGTAGG | 0.09
GTTTCCACGTGGTATT | 0.01
CTTGTCACGTGAGAGA | 0.37
ATTAACACGTGTTTCT | -0.04
GATTTCACGTGTGTCT | 0.33

Sequence | relative binding free energy [kcal/mol]
AAGATCACGTGGGTGC | 0.09
GTCGTCACGTGGTGAA | 0.01
ATGGTCACGTGCGAGA | 0.07
GATGACACGTGTTTAG | 0.16
AGCTTCACGTGAAGGT | 0.28
TTTGACACGTGAGGTC | 0.11
AGAAGCACGTGGGGGA | -0.14
GTGTGCACGTGAGTAG | 0.28
GGTTGCACGTGTAGCT | 0.12
TGTCTCACGTGGAGTA | 0.25
ACGTTCACGTGGTGGG | 0.29
TTAGACACGTGGAGCG | 0.02
GGTTTCACGTGGGGGA | 0.28
GAGTCCACGTGTTGGG | 0.08
TCAATCACGTGGTGGA | 0.16
ATGTGCACGTGCGGGC | -0.03
AGATACACGTGTAGTT | 0.11
TTTAGCACGTGGGAGC | -0.19
TAAGTCACGTGTTGGT | 0.19
AATTACACGTGGTAGG | 0.09
AGGTACACGTGGGTTG | -0.12
GTCGTCACGTGTTAGG | 0.21
CTAGTCACGTGGTTAT | -0.07
GCTGTCACGTGTTGAT | 0.12
TGGCTCACGTGATTGA | 0.34
TGTGCCACGTGTGCTG | -0.07

Sequence | relative binding free energy [kcal/mol]
TCTTTCACGTGGGAGA | 0.32
AGCGTCACGTGTGGAA | 0.16
TAGTTCACGTGTTCAG | 0.21
GTGAGCACGTGAGGTG | 0.18
TGTGGCACGTGTTTTC | 0.07
ATTATCACGTGGGGGC | 0.04
GAAGTCACGTGGTTGA | 0.06
TTGGTCACGTGAGGAA | 0.24
GTGTTCACGTGTCGCG | 0.12
TTTCGCACGTGTAGGC | 0.1
TTCGGCACGTGACATG | 0.07
GTCGTCACGTGTGGAT | 0.2
TTACCCACGTGGTGTG | -0.08
AGGTGCACGTGCGCGG | -0.23
AGGAGCACGTGGGCAA | -0.14
AGGAACACGTGGGGGC | -0.03
GGATACACGTGGTGAA | 0.02
TGTTTCACGTGGTTTG | 0.33
GTTATCACGTGGATCG | 0.24
TAAATCACGTGGCTTG | -0.02
TCTAGCACGTGGGCTG | -0.22
GGTGGCACGTGGGAGA | -0.07
GGACTCACGTGTGGGT | 0.14
TGTCTCACGTGAGCGT | 0.23
TGCGTCACGTGTGTTG | -0.1
TATAGCACGTGGGGCA | -0.17

Sequence | relative binding free energy [kcal/mol]
TTGGGCACGTGTGTAG | 0.01
ATTTACACGTGCGGTG | 0.16
TTGATCACGTGTTTCA | 0.06
AGGGTCACGTGCTGTC | 0.05
TTATGCACGTGCCGGG | -0.2
CATGACACGTGGTTGG | 0.09
ATTTACACGTGAATGT | 0.37
TTCTTCACGTGTTTGC | 0.31
AGTGCCACGTGGTTGA | -0.26
TTTAACACGTGTGTGG | -0.07
TAGTCCACGTGTGTAA | 0.17
GGAGTCACGTGGTAAT | 0.16
TAGGCCACGTGGGCAG | -0.18
ACTGGCACGTGCAGGG | -0.04
TTAATCACGTGGTAGG | 0.2
GGGTGCACGTGTCGCG | 0.1
TTCTGCACGTGTGTAG | -0.08
TTATTCACGTGGGCTT | 0.19
CAATTCACGTGTTAGT | 0.33
GGATTCACGTGTCTTT | 0.24
GGGTACACGTGTGAAG | 0.19
AGGTACACGTGCAGGT | -0.02
CGTAGCACGTGGGGTG | -0.36
ATCGGCACGTGGGCGG | -0.12
CGGGGCACGTGATGCT | -0.03
CTTTACACGTGTAAGT | 0.14

Sequence | relative binding free energy [kcal/mol]
TGTCGCACGTGGTAAT | -0.09
TGTTTCACGTGGGTCG | 0.19
AGGATCACGTGTTGCG | 0.12
CTGACCACGTGGGGTT | -0.21
GGGGCCACGTGGGGAG | -0.17
GGGCACACGTGTTAGT | 0
CGAGTCACGTGGGAGA | 0.13
GAGTGCACGTGTGGGC | -0.03
TGACGCACGTGTTGGC | 0.13
GGCGGCACGTGCTAGG | -0.25
TTTGACACGTGGGTTC | -0.13
AGTTACACGTGGAGGA | 0.13
GACGTCACGTGTCGGT | 0.13
TCGGTCACGTGTAGGT | 0.1
GCGGTCACGTGGTGTC | 0.13
TGTGTCACGTGGCACG | -0.04
TTAGGCACGTGTTGAC | -0.11
ATATTCACGTGGTGGT | 0.3
TTACGCACGTGTTTGC | -0.15
TATGGCACGTGAATTT | 0.17
TAGTGCACGTGCGTTT | 0.03
TATAACACGTGTTGTA | -0.05
TGTTTCACGTGATCGT | 0.26
AATGTCACGTGAGGTC | 0.23
AATTACACGTGGGTTG | 0.04
GATCTCACGTGTGTGG | 0.28

Sequence | relative binding free energy [kcal/mol]
GGTGTCACGTGGGCTG | -0.02
GATGCCACGTGGTTTG | -0.04
CAGTGCACGTGTAAGG | 0.03
AGTGTCACGTGACAGT | 0.12
GAATTCACGTGGATTG | 0.31
GGTAGCACGTGGGGTG | -0.16
TGTTTCACGTGTGCGC | 0.28
CTTTGCACGTGTTATT | -0.04
TATGGCACGTGTGCCT | 0.03
GGTGGCACGTGTATGA | -0.01
GGGGTCACGTGGTCAT | 0.02
TGTAGCACGTGCAGGG | -0.32
GCTAACACGTGAGGGT | 0.36
GGATACACGTGGGCTG | -0.12
GTTTACACGTGCTGGG | 0.14
GAGTACACGTGGTAGC | 0.25
AGTTTCACGTGCGCAG | 0.34
CGAGGCACGTGCGGGT | -0.16
TAATACACGTGATTGG | 0.16
AGGGCCACGTGTTATA | -0.03
GGAATCACGTGCGGTA | 0.1
TATAACACGTGTAGGG | 0.14
TGGGCCACGTGTAGTA | -0.08
AGTGCCACGTGGGGCG | -0.33
ATTGACACGTGGGTTG | -0.09
TGGGTCACGTGGAAGC | 0.09

Sequence | relative binding free energy [kcal/mol]
TTTTCCACGTGGGGCT | -0.1
TAATCCACGTGAGGGG | 0.18
TTAGACACGTGTGGAT | 0.12
GGCAGCACGTGGTAAT | -0.08
CTGTGCACGTGTTTAT | -0.09
ATCGTCACGTGTGGTG | 0.2
TGAGACACGTGTAGTA | 0.05
AGATACACGTGTTTGG | 0.04
TGACACACGTGTGTGG | 0.04
GTGGCCACGTGAGGTC | 0.15
GAAGACACGTGGGGTT | -0.05
TGTGACACGTGTATGC | -0.08
ACTGGCACGTGTGGGG | -0.1
TGGTGCACGTGAGGGC | 0.23
TAGTGCACGTGATACG | -0.01
TTTGGCACGTGGTTTG | -0.06
ATTCGCACGTGTACGG | 0.02
TTTATCACGTGTCTGG | -0.04
CCATGCACGTGGGTTG | -0.22
ACTGGCACGTGCGGGG | -0.16
AGGCACACGTGGGTAT | -0.08
AGATTCACGTGAAGGA | 0.32
AGTTACACGTGGGACT | 0.09
TATTTCACGTGGAGAG | 0.27
TCGGACACGTGTGTAG | 0.07
GTTTGCACGTGATGTA | 0.09

Sequence | relative binding free energy [kcal/mol]
AGTACCACGTGGCGGT | -0.21
TTAGCCACGTGGGGTG | -0.31
GTGAACACGTGTAGGA | 0.12
TTAGTCACGTGTTTAC | -0.02
AGTAACACGTGAATGT | 0.27
GCTTTCACGTGAGGAG | 0.42
TGATTCACGTGATGGT | 0.44
TAGCGCACGTGTTTTT | -0.13
CGTGGCACGTGGTTGG | -0.08
AGTTACACGTGGCGCT | 0.09
ATTTTCACGTGTCAGG | 0.13
TAAGTCACGTGAGGTC | 0.38
CGTAGCACGTGTTGAT | -0.04
TTTCGCACGTGGATTG | -0.01
GTATGCACGTGTGGCA | -0.11
AGAGTCACGTGAAATT | 0.32
TTGTGCACGTGCCGGT | -0.09
TATTTCACGTGAAAAT | 0.42
TGAAGCACGTGGTAAA | 0
TTTTGCACGTGTACCG | 0.09
AGATACACGTGATGTG | 0.09
GGAGACACGTGCGGTT | 0.01
GGGCGCACGTGGCTGG | -0.2
CGGTGCACGTGGGCTT | -0.2
GCGGTCACGTGGCGTG | 0.05
TTTTGCACGTGTGTCT | 0.11

Sequence | relative binding free energy [kcal/mol]
TCTGGCACGTGAATTG | 0.1
GTGGCCACGTGGTGGA | -0.08
GGTGTCACGTGCGCGT | 0.01
CTTAGCACGTGGGTAA | -0.24
TTGTGCACGTGTTGTA | 0
TGAGACACGTGGCGAA | 0.17
TACATCACGTGGGGGT | -0.02
ACGGCCACGTGGGGTG | -0.25
GAATGCACGTGGGGAA | -0.08
GTGTTCACGTGATAGG | 0.45
ATAGGCACGTGTAAGG | 0.03
TTCGGCACGTGTCGTA | -0.04
TTGGTCACGTGAATAT | 0.29
AGCATCACGTGGGGTC | 0.12
TAGGACACGTGGTATG | -0.06
TTTAGCACGTGGTCTA | -0.21
AGTGGCACGTGCAGAG | -0.09
GTAAGCACGTGGGCAT | -0.23
AGTCGCACGTGTGATT | 0.07
GCTAGCACGTGGTAGG | -0.02
AGGTGCACGTGCAAGG | -0.1
TGGTGCACGTGTGCAA | 0.05
